Results on 102 sequences are retold here after a collection of fitness landscapes (doi:10.1038/s41467-024-54723-y).

Over roughly 18,000 sequences, “TetR repression strength (sort-seq, GFP reporter)” has its median near 0.23; the highest 2% begin near 0.68. The list shows a part of the results.

The target of this experiment is TetR (class B, Tn10) (UniProt P04483). As to the kind of experiment: TetR repression strength (sort-seq, GFP reporter) (relative to tetO2 = 1); higher = stronger repression. The settings on record: E. coli. In short, it runs like this: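 Repression strength is the top bin index plus one minus the read-weighted mean bin, relative to the unaltered operator's value. A low-copy library in E. coli SIG10-MAX randomized eight operator positions between a constitutive promoter and sfGFP, with TetR expressed constitutively; cells grew 5 h at 37 °C in LB with 50 µg/mL chloramphenicol and 10^6 were FACS-sorted into 13 bins that were each Illumina-sequenced. Three independent transformations were averaged, keeping only members with ≥30 reads in all replicates and CV ≤0.5.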
Chain of UniProt P04483 (P04483 whole entry): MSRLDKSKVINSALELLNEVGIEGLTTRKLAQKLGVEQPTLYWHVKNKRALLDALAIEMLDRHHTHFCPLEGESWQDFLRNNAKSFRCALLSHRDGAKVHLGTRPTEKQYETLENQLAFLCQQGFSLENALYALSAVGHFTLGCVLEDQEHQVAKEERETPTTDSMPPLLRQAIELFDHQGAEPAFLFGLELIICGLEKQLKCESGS
Consider TCCCGCAGAGTCACAGAGA, for which the TetR repression strength is 0.277.
For TCCCGAGCAGTACAGGAGA, the TetR repression strength was determined as 0.0626.
To TCCCCGAAAGTTTTAGAGA belongs 0.262; to TCCCGGACAGTCGAAGAGA, 0.0697; to TCCCAAACAGTCAACGAGA, 0.272.
To TCCCCTTCAGTAGGGGAGA belongs 0.372; to TCCCGAGGAGTTCGGGAGA, 0.116; to TCCCGCGCAGTGGCCGAGA, 0.202.
With TCCCGTTTAGTCATTGAGA, the TetR repression strength came to 0.281.
Consider TCCCGCGTAGTTCGAGAGA, for which the TetR repression strength was 0.146.
As to TCCCATAAAGTGGTGGAGA, the TetR repression strength is 0.241.
On to TCCCCTCGAGTGATTGAGA, for which the TetR repression strength is 0.244.
For the sequence TCCCACCGAGTGTGCGAGA, the TetR repression strength amounted to 0.194.
Next, TCCCTACGAGTCCTCGAGA: 1.14; TCCCGAGAAGTCAGAGAGA: 0.212.
Sequence TCCCATGGAGTTGGTGAGA had a TetR repression strength of 0.227.
Next, TCCCCATTAGTGCACGAGA: 0.187; TCCCGTCTAGTGTTGGAGA: 0.132; TCCCTAAGAGTATAGGAGA: 0.338.
TCCCCGAAAGTGACCGAGA gave a TetR repression strength of 1.21.
Next, TCCCGCAGAGTATGTGAGA: 0.171; TCCCCGGAAGTATGGGAGA: 0.228.
For TCCCACGAAGTAGGGGAGA, the TetR repression strength was 0.104.
In turn, TCCCAATGAGTGATAGAGA yielded a TetR repression strength of 0.685.
In turn, TCCCGGGCAGTCTGAGAGA showed a TetR repression strength of 0.179.
Sequence TCCCCACTAGTTGTTGAGA showed a TetR repression strength of 0.294.
TCCCGATGAGTCGCTGAGA registered a TetR repression strength of 0.0346.
TCCCTGTTAGTGCTCGAGA: the TetR repression strength worked out at 1.15.
To TCCCAGTAAGTTAGGGAGA belongs 0.136.
TCCCGCACAGTTCTGGAGA showed a TetR repression strength of 0.187.
To TCCCCCTTAGTTAACGAGA belongs 0.349; to TCCCCGCGAGTCGGTGAGA, 0.118; to TCCCCGTCAGTGCCTGAGA, 0.436.
Consider TCCCGGGGAGTGTTAGAGA, for which the TetR repression strength was determined as 0.247.
In the case of TCCCTCGGAGTGTGGGAGA, the TetR repression strength came out at 0.27.
On to TCCCCGCTAGTTGTGGAGA, for which the TetR repression strength worked out at 0.132.
To TCCCGAATAGTGTACGAGA belongs 0.
As to TCCCATATAGTTACGGAGA, the TetR repression strength was found to be 0.112.
Sequence TCCCTCCAAGTTGCTGAGA showed a TetR repression strength of 0.207.
The sequence TCCCGCCAAGTTAGCGAGA came in with a TetR repression strength of 0.296.
The sequence TCCCGCAGAGTGAAGGAGA came in with a TetR repression strength of 0.396.
Sequence TCCCCCCCAGTAAGCGAGA had a TetR repression strength of 0.291.
As to TCCCTTCGAGTGCTGGAGA, the TetR repression strength is 0.513.
On to TCCCCACAAGTCGCTGAGA, for which the TetR repression strength turned out to be 0.347.
Consider TCCCGTGGAGTGCTAGAGA, for which the TetR repression strength was 0.292.
Sequence TCCCGGTGAGTGGGAGAGA came in with a TetR repression strength of 0.238.
Turning to TCCCGTGAAGTGTTGGAGA, the TetR repression strength is 0.294.
In the case of TCCCTCCGAGTCTGGGAGA, the TetR repression strength amounted to 0.233.
Consider TCCCATTAAGTGGAGGAGA, for which the TetR repression strength was 0.573.
TCCCCGGGAGTGAGGGAGA: the TetR repression strength was determined as 0.13.
Next, TCCCAAAAAGTTCAGGAGA: 0.239; TCCCTTGTAGTATTAGAGA: 0.283; TCCCGGGGAGTGCTAGAGA: 0.198.
Regarding TCCCGGGGAGTGGAAGAGA, the TetR repression strength is 0.175.
TCCCTATCAGTACCTGAGA displayed a TetR repression strength of 0.867.
Next, TCCCACCCAGTTAGGGAGA: 0.269.
TCCCCGTAAGTCGCGGAGA registered a TetR repression strength of 0.207.
In turn, TCCCTCGGAGTGCATGAGA came in with a TetR repression strength of 0.122.
TCCCACCGAGTATCAGAGA had a TetR repression strength of 0.277.
With TCCCTTGAAGTCAGTGAGA, the TetR repression strength was determined as 0.236.
Sequence TCCCGCAGAGTGACTGAGA returned a TetR repression strength of 0.248.
Sequence TCCCAATGAGTGATCGAGA showed a TetR repression strength of 0.329.
To TCCCTGACAGTATATGAGA belongs 0.149.
On to TCCCTTGTAGTCTGAGAGA, for which the TetR repression strength was 0.283.
With TCCCATTGAGTAGTCGAGA, the TetR repression strength was found to be 0.244.
Take TCCCTATTAGTAGCTGAGA: the TetR repression strength turned out to be 0.207.
Next, TCCCTACGAGTACTCGAGA: 0.207; TCCCAGGCAGTGTCAGAGA: 0.2.
To TCCCAATAAGTGTGCGAGA belongs 0.242.
The sequence TCCCAGCGAGTATCGGAGA came in with a TetR repression strength of 0.447.
As for TCCCGTAGAGTACTAGAGA, the TetR repression strength stood at 0.353.
TCCCTACGAGTTGGTGAGA displayed a TetR repression strength of 0.02.
Take TCCCAAAAAGTTTGTGAGA: the TetR repression strength came to 0.273.
Next, TCCCATTCAGTCGCAGAGA: 0.291; TCCCTGCAAGTCGTCGAGA: 0.434; TCCCTAAGAGTGGACGAGA: 0.329.
TCCCGGGTAGTGGTGGAGA displayed a TetR repression strength of 0.277.
Take TCCCGCAGAGTAACAGAGA: the TetR repression strength was 0.304.
To TCCCGGTGAGTCCAAGAGA belongs 0.367; to TCCCGCTTAGTGCTGGAGA, 0.102.
TCCCTACGAGTATGGGAGA displayed a TetR repression strength of 0.0752.
TCCCAACTAGTGATGGAGA: the TetR repression strength came out at 0.165.
Next, TCCCAGGCAGTATTTGAGA: 0.27.
The sequence TCCCACCTAGTCTGGGAGA showed a TetR repression strength of 0.201.
On to TCCCTGCCAGTGAACGAGA, for which the TetR repression strength was found to be 0.276.
As for TCCCATGAAGTGAGCGAGA, the TetR repression strength was found to be 0.255.
TCCCAAGGAGTGGCAGAGA yielded a TetR repression strength of 0.228.
Next, TCCCCTGAAGTCTAAGAGA: 0.207.
Next, TCCCTGGGAGTGGTGGAGA: 0.188.
To TCCCTTGTAGTCCGGGAGA belongs 0.387.
On to TCCCCATAAGTGTACGAGA, for which the TetR repression strength came to 0.319.
TCCCATGTAGTCTGGGAGA yielded a TetR repression strength of 0.403.
Next, TCCCTAAAAGTTGGTGAGA: 0.259.
In turn, TCCCGCCTAGTTGGAGAGA showed a TetR repression strength of 0.272.
To TCCCCATTAGTAGATGAGA belongs 0.278.
To TCCCCTTCAGTAGGCGAGA belongs 0.244.
TCCCTACAAGTCTGGGAGA displayed a TetR repression strength of 0.31.
For TCCCTCGGAGTGGTCGAGA, the TetR repression strength came to 0.217.
In turn, TCCCCGCCAGTTAGCGAGA displayed a TetR repression strength of 0.12.
Regarding TCCCTCTAAGTCTACGAGA, the TetR repression strength is 0.343.
TCCCGATAAGTTGGAGAGA displayed a TetR repression strength of 0.175.
TCCCTCAAAGTCGCGGAGA came in with a TetR repression strength of 0.227.
